Drawing on paper PMC6835202, this text covers binding for five substances.

Chains of the proteins cited; added tags and fusions are not shown.
UniProt Q60929: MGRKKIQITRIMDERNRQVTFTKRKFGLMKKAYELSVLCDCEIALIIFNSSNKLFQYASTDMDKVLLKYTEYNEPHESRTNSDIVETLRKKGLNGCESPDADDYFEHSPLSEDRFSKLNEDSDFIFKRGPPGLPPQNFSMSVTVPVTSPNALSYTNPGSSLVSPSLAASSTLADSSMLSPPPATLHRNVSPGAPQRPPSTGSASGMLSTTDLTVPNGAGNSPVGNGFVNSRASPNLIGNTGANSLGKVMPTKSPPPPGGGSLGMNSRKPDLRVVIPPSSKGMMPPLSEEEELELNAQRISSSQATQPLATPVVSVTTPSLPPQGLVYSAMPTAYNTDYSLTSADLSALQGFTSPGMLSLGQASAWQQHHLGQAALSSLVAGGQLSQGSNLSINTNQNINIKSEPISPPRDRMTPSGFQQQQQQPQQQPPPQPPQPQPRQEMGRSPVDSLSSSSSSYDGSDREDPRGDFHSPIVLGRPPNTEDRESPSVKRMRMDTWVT
UniProt Q6NZM9: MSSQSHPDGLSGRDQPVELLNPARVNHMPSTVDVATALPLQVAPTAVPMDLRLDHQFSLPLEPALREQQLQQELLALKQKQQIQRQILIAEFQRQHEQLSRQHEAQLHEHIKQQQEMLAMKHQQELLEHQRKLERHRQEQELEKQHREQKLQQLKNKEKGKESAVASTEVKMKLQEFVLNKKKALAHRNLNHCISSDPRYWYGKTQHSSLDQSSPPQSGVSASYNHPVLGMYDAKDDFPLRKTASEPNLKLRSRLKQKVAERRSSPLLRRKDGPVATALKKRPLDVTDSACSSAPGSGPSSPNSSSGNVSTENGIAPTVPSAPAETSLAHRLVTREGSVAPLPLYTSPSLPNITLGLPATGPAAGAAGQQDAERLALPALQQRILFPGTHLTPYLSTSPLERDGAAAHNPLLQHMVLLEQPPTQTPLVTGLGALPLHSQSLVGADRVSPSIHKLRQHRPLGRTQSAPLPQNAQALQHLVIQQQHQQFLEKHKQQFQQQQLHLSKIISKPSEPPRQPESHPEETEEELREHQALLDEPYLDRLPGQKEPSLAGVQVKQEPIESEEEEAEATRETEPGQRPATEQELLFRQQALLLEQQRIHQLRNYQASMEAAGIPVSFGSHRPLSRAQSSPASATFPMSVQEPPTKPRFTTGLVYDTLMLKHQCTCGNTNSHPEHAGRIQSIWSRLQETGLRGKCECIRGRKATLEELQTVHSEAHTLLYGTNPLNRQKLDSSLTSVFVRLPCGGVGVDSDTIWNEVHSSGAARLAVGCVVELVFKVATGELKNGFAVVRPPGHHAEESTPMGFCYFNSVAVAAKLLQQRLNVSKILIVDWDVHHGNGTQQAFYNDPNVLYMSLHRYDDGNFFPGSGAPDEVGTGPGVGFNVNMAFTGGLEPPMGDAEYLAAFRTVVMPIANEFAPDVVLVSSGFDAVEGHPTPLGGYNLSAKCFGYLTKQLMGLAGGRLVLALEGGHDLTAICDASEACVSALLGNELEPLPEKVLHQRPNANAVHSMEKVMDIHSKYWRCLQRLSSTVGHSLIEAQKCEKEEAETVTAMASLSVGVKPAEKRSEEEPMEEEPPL
UniProt Q9UKV0: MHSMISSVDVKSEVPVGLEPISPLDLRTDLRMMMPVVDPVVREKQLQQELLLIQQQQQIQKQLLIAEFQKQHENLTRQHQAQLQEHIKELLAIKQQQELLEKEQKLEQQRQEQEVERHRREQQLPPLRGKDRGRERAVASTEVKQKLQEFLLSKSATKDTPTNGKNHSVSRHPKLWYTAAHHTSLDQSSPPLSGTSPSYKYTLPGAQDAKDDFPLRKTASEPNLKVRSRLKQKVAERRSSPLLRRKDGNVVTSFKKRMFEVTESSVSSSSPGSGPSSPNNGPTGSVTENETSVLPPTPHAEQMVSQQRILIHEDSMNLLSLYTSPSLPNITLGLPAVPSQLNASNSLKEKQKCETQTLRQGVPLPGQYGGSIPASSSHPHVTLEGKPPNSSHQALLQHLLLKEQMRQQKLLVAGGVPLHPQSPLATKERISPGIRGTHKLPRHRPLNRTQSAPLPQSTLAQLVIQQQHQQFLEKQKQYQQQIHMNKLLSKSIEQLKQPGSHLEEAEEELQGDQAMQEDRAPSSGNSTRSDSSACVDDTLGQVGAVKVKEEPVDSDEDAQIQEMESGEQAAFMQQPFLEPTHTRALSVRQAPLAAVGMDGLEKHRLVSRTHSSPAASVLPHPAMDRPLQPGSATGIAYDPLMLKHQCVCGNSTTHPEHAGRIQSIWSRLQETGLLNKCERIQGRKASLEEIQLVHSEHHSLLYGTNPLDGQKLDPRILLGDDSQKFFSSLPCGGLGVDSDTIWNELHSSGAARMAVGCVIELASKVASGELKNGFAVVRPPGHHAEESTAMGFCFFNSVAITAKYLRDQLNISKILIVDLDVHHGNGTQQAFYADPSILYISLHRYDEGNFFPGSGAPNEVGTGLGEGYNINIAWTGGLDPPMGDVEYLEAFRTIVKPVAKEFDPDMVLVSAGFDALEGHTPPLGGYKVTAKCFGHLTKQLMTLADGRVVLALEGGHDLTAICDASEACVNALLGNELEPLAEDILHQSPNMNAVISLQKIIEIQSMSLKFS

Results are given in words; binding and its absence hold for the method and conditions named. Binding seen in cells or lysates may run through a third protein. Some binding calls cover weakened binding; strength is not graded here. For part of these data: Tags and fused reporters may be left off the sequences shown.

For test [1], the target named is MEF2a, endogenous in mouse ventricular samples (mouse (endogenous in ventricular samples)) (UniProt Q60929). Put plainly: co-IP; mouse ventricular samples lysed in IP lysis buffer; anti-MEF2a antibodies (or IgG) with protein A/G beads overnight; Western blotting. Background: In western blotting, separated proteins are transferred to a membrane and probed.
Test [2] addresses NCoR1-flag expressed from lentivirus in NRVMs (UniProt Q60974). Briefly: co-IP; NRVMs infected with NCoR1-flag lentivirus and then HDAC4, HDAC5-GFP or HDAC9 adenovirus; MEF2a not overexpressed.
Test [3] shares this target. Briefly: co-IP; NRVMs infected with NCoR1-flag lentivirus and then MEF2a-HA lentivirus and HDAC5-GFP adenovirus.
Test [4] concerns the target T1, NCoR1 receptor interaction domains (RIDs) (1939-2453)-Flag (UniProt Q60974).
T1 sequence: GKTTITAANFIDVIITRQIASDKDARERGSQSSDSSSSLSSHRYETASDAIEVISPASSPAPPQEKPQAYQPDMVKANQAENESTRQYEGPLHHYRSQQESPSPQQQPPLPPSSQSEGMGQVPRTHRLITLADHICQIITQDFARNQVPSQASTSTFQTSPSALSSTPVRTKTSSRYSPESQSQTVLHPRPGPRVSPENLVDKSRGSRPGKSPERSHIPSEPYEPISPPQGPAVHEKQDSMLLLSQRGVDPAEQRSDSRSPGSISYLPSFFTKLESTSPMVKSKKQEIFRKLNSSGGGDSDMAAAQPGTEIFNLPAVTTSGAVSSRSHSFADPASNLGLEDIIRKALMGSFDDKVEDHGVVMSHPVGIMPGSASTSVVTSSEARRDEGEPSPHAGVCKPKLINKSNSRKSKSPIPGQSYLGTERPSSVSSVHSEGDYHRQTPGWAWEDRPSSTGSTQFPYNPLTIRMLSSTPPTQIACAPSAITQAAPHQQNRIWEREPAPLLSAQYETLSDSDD
Put plainly: co-IP; HEK293FT cells transfected with NCoR1-Flag (full length or truncated) and MEF2a-HA (full length or truncated); Western blotting.

In test [5] the target is full-length NCoR1-Flag (nuclear receptor corepressor 1) (UniProt Q60974). Described as above.

Take “HDAC4, endogenous in mouse ventricular samples (from UniProt Q6NZM9 1-1076)”: the binding entry in test [1] is “binds”.

Regarding “HDAC9 expressed from adenovirus in NRVMs (from UniProt Q9UKV0 1-1011)”, the binding entry in test [2] was “no binding”.

With “MEF2a-HA expressed from lentivirus in NRVMs (from UniProt Q60929 1-498)”, the binding entry in test [3] is listed as “binds”.

For “NCoR1, endogenous in mouse ventricular samples (from UniProt Q60974 1-2453)”, the binding entry in test [1] is “binds”.

In the case of “full-length MEF2a-HA (myocyte enhancer factor 2a) (from UniProt Q60929 1-498)”, the binding entry in test [4] and in test [5] was “binds” in each case.
